In all, about 340,000 compounds went through this assay and about 6,900 (2%) were called active. No stated cut-off is given here; in the data, active means inhibition above about 30%; inactive means below that, where a call was filed. This is a selection; strong and weak results do not stand in their true shares. The source gives no active or inactive call for entries shown without one.

This assay addresses D(2) dopamine receptor (Homo sapiens) (UniProt P14416). In words: HTS Assay for Allosteric Antagonists of the Human D2 Dopamine Receptor: Primary Screen for Antagonists. Further: 0% is about no effect. Particulars: HEK293 TREx D2 cells, calcium flux, dopamine EC80; at 10 µM; stronger effect = higher value. The method in brief: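 Overnight-induced (tetracycline, 30 C) HEK293 T-REx cells carrying force-coupled D2 receive a no-wash calcium dye, then compound, then EC80 dopamine at 180 s; signals are read kinetically throughout.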
UniProt P14416, sequence (P14416 whole entry, looked up): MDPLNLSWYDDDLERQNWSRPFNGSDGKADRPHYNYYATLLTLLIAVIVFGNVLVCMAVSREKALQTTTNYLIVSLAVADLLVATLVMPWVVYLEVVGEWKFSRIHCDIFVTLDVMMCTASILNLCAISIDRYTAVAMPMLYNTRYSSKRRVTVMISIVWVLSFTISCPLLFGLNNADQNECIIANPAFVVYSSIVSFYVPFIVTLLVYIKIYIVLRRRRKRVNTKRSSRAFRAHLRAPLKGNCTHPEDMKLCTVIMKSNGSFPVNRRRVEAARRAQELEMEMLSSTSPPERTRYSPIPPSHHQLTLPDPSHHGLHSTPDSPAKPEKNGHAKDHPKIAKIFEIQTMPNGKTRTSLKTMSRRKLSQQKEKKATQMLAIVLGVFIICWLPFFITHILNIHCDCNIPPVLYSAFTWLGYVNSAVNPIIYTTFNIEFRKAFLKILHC
Regarding `Cc1ccc2oc(C(=O)N(Cc3cccc(F)c3)C3CCS(=O)(=O)C3)c(C)c2c1` (configuration not stated), the inhibition came out at 15.1%. Then `CC(C)CCC(CCN1CCOCC1)c1ccc2c(c1)OCO2` (configuration not stated), with active: 30.9%; and `O=C(NCc1ccccc1Cl)C1CCC(CNS(=O)(=O)c2ccc(Cl)cc2)CC1` (configuration not stated), with 6.96%; and `COc1cccc(NC(=O)N2CCC(n3c(C)nc4cccnc43)CC2)c1`, with 3.54%. Then `COc1cccc(Cn2c(=O)n(-c3ccc(C)c(F)c3)c(=O)c3sc4ccccc4c32)c1`, with -6.71%; and `O=C(CCc1cn(Cc2ccccc2F)c2ccccc12)NCc1ccc(Cl)cc1`, with 18.4%. To `CCOC(=O)c1nc(Nc2ccc(C(=O)OCC(C)C)cc2)c2ccccc2n1` belongs 24.2%. In the case of `CC1CCC(NC(=O)CCCn2sc3ccccc3c2=O)CC1` (configuration not stated), the inhibition was active: 39%.

With `CCOC(=O)c1cc(-c2ccccc2)n(CC(=O)Nc2ccc(OC)cc2OC)c1C`, the inhibition turned out to be 0.285%. Then `CSc1cccc(-c2nnc(NC(=O)c3ccc4c(c3)OCCO4)o2)c1`, with -2.5%; and `CC(C)CC(=O)NCc1nc2cccnc2n1Cc1ccccc1`, with 6.18%. To `CC1=C(C(=O)Nc2ccc(C)cc2C)C(c2ccc(Cl)cc2)n2nc(C(=O)OC(C)C)nc2N1` (configuration not stated) belongs -7.8%; to `CCc1ccc(NC(=O)c2cc3sc(Cl)cc3n2C)cc1`, 4.66%; to `O=C(Cn1cnc(S(=O)(=O)N2CCCC2)c1)Nc1ccc(OC(F)(F)F)cc1`, -5.57%. To `COc1ccc(CN2COc3ccc4c(-c5ccccc5)cc(=O)oc4c3C2)cc1` belongs 22.5%; to `CCOC(=O)c1c(C)[nH]c(C)c1S(=O)(=O)N1CCCC(C(=O)Nc2ccc(OC)c(Cl)c2)C1` (configuration not stated), -0.607%.

Consider `O=C(Cn1ncc2c3ccccc3n(Cc3ccccc3F)c2c1=O)NCCc1ccc(Cl)cc1`, for which the inhibition amounted to 6.07%. Then `[N-]=C=C1C(=O)NC(=O)C([n+]2ccc(-c3ccncc3)cc2)C1c1ccccc1C(F)(F)F` (configuration not stated), with active: 35.5%; and `COc1cccc(CNC(=O)CSc2c3c(nc4ccc(Cl)cc24)CCCC3)c1OC`, with 9.21%. With `CCc1cccc(NC(=O)Cn2c(=O)n(CCc3ccc(OC)c(OC)c3)c(=O)c3ccccc32)c1`, the inhibition was -2.37%.

For the compound `Cc1nn(CC(=O)NCCCc2ccccc2)c(=O)c2cc3occc3n12`, the inhibition was active: 32.4%. Then `COCc1cc(C)n(CC(=O)N2CCCC2)c(=O)c1C#N`, with active: 30.8%; and `O=C(Cn1ncc2c(=O)oc3ccccc3c21)NCc1ccccc1Cl`, with 5.62%; and `COc1ccc(CC(=O)NCc2ccc3c(c2)CCN3C(=O)c2ccc(C)cc2)cc1OC`, with -8.51%.

`C1COC(NC(C2CC2)C2CC2)=N1`: the inhibition was active: 36.2%.

Take `Cc1ccc(CNC(=O)CN(c2ccc(Cl)cc2Cl)S(=O)(=O)c2ccccc2)cc1`: the inhibition was found to be 4.41%.

As for `O=C(/C=C/c1ccco1)NCC1OCCc2ccccc21` (configuration not stated), the inhibition is active: 30.8%.
